Paper PMC4336329 (PLoS ONE, 2015)
In all, about 310,000 compounds went through this assay and about 2,200 (0.71%) showed an effect of 50% or more. Effects have a minus sign here. The list shows a part of the results.

Target: human ether-à-go-go-related gene (hERG) potassium channel (human, UniProt Q12809)
Assay: primary screen, population patch clamp on CHO cells stably expressing hERG

Chain of human ether-à-go-go-related gene (hERG) potassium channel (Q12809 whole entry, looked up): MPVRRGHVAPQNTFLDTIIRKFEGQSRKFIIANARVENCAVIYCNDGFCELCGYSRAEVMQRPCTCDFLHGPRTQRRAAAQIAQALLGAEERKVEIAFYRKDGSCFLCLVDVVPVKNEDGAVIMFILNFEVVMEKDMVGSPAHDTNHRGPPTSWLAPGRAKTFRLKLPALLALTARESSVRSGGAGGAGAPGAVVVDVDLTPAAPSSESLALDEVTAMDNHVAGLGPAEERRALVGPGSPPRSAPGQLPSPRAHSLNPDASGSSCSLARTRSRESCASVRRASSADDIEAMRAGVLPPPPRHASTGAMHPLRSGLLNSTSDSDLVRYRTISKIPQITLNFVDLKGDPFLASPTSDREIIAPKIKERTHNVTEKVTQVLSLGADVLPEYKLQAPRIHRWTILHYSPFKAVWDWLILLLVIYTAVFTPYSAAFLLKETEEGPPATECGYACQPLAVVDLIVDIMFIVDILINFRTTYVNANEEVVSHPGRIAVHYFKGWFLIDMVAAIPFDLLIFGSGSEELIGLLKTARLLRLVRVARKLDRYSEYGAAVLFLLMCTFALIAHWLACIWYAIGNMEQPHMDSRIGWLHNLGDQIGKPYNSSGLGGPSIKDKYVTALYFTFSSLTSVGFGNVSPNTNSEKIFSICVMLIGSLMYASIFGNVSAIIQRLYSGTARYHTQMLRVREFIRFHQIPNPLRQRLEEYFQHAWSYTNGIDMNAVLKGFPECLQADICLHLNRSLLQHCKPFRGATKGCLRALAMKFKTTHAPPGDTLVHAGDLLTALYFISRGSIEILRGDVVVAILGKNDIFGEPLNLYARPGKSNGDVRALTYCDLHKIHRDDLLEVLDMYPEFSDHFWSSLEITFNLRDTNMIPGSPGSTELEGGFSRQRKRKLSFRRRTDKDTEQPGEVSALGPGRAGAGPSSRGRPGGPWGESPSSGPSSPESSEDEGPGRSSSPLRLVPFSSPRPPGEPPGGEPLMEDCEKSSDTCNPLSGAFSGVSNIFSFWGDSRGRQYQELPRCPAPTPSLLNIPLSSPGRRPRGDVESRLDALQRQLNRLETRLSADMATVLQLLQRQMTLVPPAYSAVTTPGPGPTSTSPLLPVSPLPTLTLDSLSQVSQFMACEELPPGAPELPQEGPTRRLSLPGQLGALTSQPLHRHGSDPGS

SMILES | hERG current change (%, negative = inhibition) at 1uM [%]
O=c1cc(CO)oc(C(Nc2ccccn2)c2ccc(C(F)(F)F)cc2)c1O (stereo not drawn) | 7.36
O=C(NC1CC2CCC(C1)N2C(=O)NC1CCCCC1)NC12CC3CC(CC(C3)C1)C2 (stereo not drawn) | 1.76
Oc1ccc(C2N=C(c3ccccc3)NC(c3ccccc3)=N2)cc1 | 0.483
Cc1cccc(NS(=O)(=O)c2ccc3c(c2)NC(=O)CO3)c1C | 13.5
COc1ccc(N2C(=O)CSC23CCC(C(C)(C)C)CC3)cc1 (stereo not drawn) | 0.138
COCCn1c(SCC(=O)N2CCCC2)nnc1-c1ccoc1C | 9.72
O=C(Cc1c(F)cccc1Cl)NNC(=O)c1ccncc1 | 6.57
CN(C)c1nnc(-c2ccc(Cl)cc2)o1 | 10.9
COC(=O)C1CCN(CC(=O)Nc2cc(Cl)ccc2OC)CC1 | 2.12
Cc1cc(-c2nnc(CCC(=O)N(C)Cc3ccsc3)o2)no1 | 14.7
CCCCNC(=O)Cn1cnc2ccc(S(=O)(=O)N3CCC(C)CC3)cc2c1=O | 7.11
O=C(Nc1cccc(S(=O)(=O)N2CCCCC2)c1)C1CC1 | 8.36
COc1ccccc1-c1cc(C(F)(F)F)nc(N2CCOCC2)n1 | 16
COCCOc1ccc(C(F)(F)F)cc1NC(=O)Cc1ccc(S(=O)(=O)N2CCOCC2)s1 | 7.35
COc1cc(/C=N/N=C2/C(=O)Nc3ccccc32)ccc1O | 10.1
CN(Cc1cnccn1)C(=O)CC1C(=O)NCCN1CC(c1ccccc1)c1ccccc1 (stereo not drawn) | 5.94
CCOC(=O)c1cnc2cc3c(cn2c1=O)CCCC3 | 3.95
NS(=O)(=O)c1ccc(CCNC(=O)CSc2ccsc2[N+](=O)[O-])cc1 | 3.73
O=c1[nH]ncc(N2CCCCC2)c1Cl | 8.78
Cc1cc(C(C)(C)C)oc1C(=O)N(CC(=O)NC1CCCC1)Cc1ccc(Cl)cc1 | 2.45
C/C(=N\NC(=O)c1ccc(Cl)c(Cl)c1)c1ccccn1 | 18.4
Cc1cc(F)ccc1S(=O)(=O)N1CCCOC1CNC(=O)C(=O)NCCCN1CCOCC1 (stereo not drawn) | 17.9

SMILES | hERG current change (%, negative = inhibition) at 1uM [%]
Oc1ccc(/C=N/N(c2ccccc2)c2ccccc2)c(O)c1O | 17.8
CC(C)NS(=O)(=O)c1ccc2c(c1)NCC2 | 19.3
COc1ccc(C(=O)O/N=C(\N)c2ccc(Br)cc2)cc1 | 15.8
N#Cc1cc(-c2ccccc2)nc(Oc2ccc(Cl)cc2)n1 | 10.1
Cc1nc(NC(=O)CCl)sc1C(=O)N(C)C | 16.6
CCOc1ccc(-n2cc(C(=O)N3CCC(C)CC3)c3cc(OC)c(OC)cc3c2=O)cc1 | 2.55
O=C(NCCc1csc(-c2cccnc2)n1)c1ccccc1Br | 4.97
COc1cccc(C(=O)OC(C)C(=O)Nc2ccc3c(c2)OCO3)c1 (stereo not drawn) | 1.8
COc1ccccc1C(=O)OCC(=O)Nc1ccc(OC(F)F)cc1 | 11
COc1ccc(/C=N/n2c(-c3n[nH]c4c3CCC4)n[nH]c2=S)cc1 | 19.8
COc1ccccc1NC(=O)COC(=O)c1c(C)nn(-c2ccccc2)c1C | -4.11
Brc1ccc(-c2ncc3ccccn23)cc1 | 14.2
O=C(Nc1ccc(S(=O)(=O)N2CCOCC2)cc1)c1ccc([N+](=O)[O-])cc1Cl | 8.2
CC(=O)Nc1ccc(OC(=O)Cc2ccc(Cl)cc2)cc1 | 9.31
Cc1cccc(N2CCN(C(=O)c3ccccc3NC(=O)C3=CSCCO3)CC2C)c1 (stereo not drawn) | -0.767
Cc1ccc(C(=O)N/C(=C/C=C\c2ccccc2)C(=O)NCc2ccco2)cc1 | -1.93
COC(=O)c1sccc1S(=O)(=O)Nc1ccc(C)cc1 | 17.6
CSc1ccccc1C(=O)Nc1ncc(C)s1 | 12.7
COc1ccc(-n2ncc3c2CC(C)(C)CC3NC(=O)CN2CCOC2=O)cc1 (stereo not drawn) | -4.4
COc1cc(/C=C(/NC(=O)c2ccccc2)C(=O)N2CCOCC2)c([N+](=O)[O-])cc1OC | -1.64
O=C(NCCC1=CCCCC1)C1CCN(S(=O)(=O)c2cccc3nonc23)CC1 | 9.83
CCC(CC)C(=O)Nc1ccc(S(=O)(=O)Nc2nccs2)cc1 | 11.1

SMILES | hERG current change (%, negative = inhibition) at 1uM [%]
C=C(C)CNC(=O)CCc1nnc(C2(c3ccc(Cl)cc3)CCC2)o1 | 12.3
CCCCNC(=O)Cc1cc(=O)[nH]c(=O)[nH]1 | 5.81
COc1ccc2ccccc2c1/C=N/N1C(=O)CSC1=S | 16.1
CCCCN(CC)CCNC(=O)c1cc2c(-c3ccc(Cl)cc3)nn(C)c2s1 | -33.2
N#CCCN(C(=O)Nc1ccc(Cl)c(Cl)c1)c1ccccc1 | 3.6
Nc1ccc(N2CCN(c3ccc(F)cc3)CC2)cc1 | 13.2
Cc1cc2c(NC(=O)Nc3ccc(F)cc3)cccc2nn1 | 14.9
COc1ccccc1CNC(=O)C1CCC(CNc2c(N3CCC(C)CC3)c(=O)c2=O)CC1 (stereo not drawn) | 10.8
Cc1cc(CNC(=O)[C@H]2C[C@@H]2[C@H](NP(=O)(c2ccccc2)c2ccccc2)c2ccccc2)nn1C | 0.461
Cc1ccc(C(=O)C2=C(O)C(=O)N(CCCN3CCOCC3)C23C(=O)N(C)c2ccccc23)o1 (stereo not drawn) | 22.9
CCCCOc1ccc(/C=C(\C#N)C(=O)NC2CC2)cc1 | 8.4
COc1cc(NS(=O)(=O)c2ccc(NC(=O)COc3ccccc3Cl)cc2)nc(OC)n1 | 4.62
COc1cc2c(cc1OC)C(C(=O)NC(C)C)C1CCCCN1C2=O (stereo not drawn) | 6.44
CCN(C(=O)Cc1c(C(=O)O)n(C)c2ccccc12)c1ccc(F)cc1 | 15.8
CC1(C)SC(=S)N(/N=C/c2ccccc2O)C1N(O)C(=O)Nc1ccccc1 (stereo not drawn) | 10.4
COCCOC(=O)C1=C(C)NC2=C(C(=O)CC(C)(C)C2)C1c1cc2c(cc1Br)OCO2 (stereo not drawn) | 12.2
C=C(C)CSc1nnc(-c2cccc(Cl)c2)n1N | 10.2
Cc1ccc(NC(=O)NCCN2CCCCC2)cc1Cl | -8.19
CCOC(=O)C1CCN(C(=O)Cn2cc(C(=O)C3CC3)c3ccccc32)CC1 | 13.4
S=C(NCC1CCCO1)NC12CC3CC(CC(C3)C1)C2 (stereo not drawn) | 14.6
CC1=C(C#N)C(c2cn(-c3ccccc3)nc2-c2cccs2)C(C#N)=C(C)N1 | 7.98
CN(c1ccccc1)S(=O)(=O)c1cccc(NC(=O)CSc2ncn[nH]2)c1 | -8.15

SMILES | hERG current change (%, negative = inhibition) at 1uM [%]
O=C(C[n+]1ccccn1)c1ccccc1.[Br-] | 18.1
C=CCOc1ccc(C2/C(=C(\O)c3ccc4c(c3)OCCO4)C(=O)C(=O)N2CCCN2CCOCC2)cc1 (stereo not drawn) | 8.67
O=C(NCCCn1ccnc1)c1cccnc1 | 4.84
Cc1cc(C)nc(SCc2ccc(C(=O)N/N=C/c3cccnc3)cc2)n1 | -28.6
CC(C)(C(=O)O)n1cncn1.Cl | 35.4
COc1cc(C(=S)N2CCCC2)ccc1OCc1ccc(C)cc1 | 13.7
COc1ccc(/C=N/NC(=O)c2ccco2)cc1Cn1nc(C)cc1C | 8.22
CC(C)(C)N(C=C(Cl)Cl)C(=O)NC1CCCCC1 | 9.86
C#CCOCCOCCOCCNc1nc(N2CCN(C(=O)[C@H](CCC(=O)O)n3cc(C(N)Cc4ccc(O)cc4)nn3)CC2)nc(N2CCN(C(=O)[C@H](CCC(=O)O)n3cc(C(N)Cc4ccc(O)cc4)nn3)CC2)n1.Cl (stereo partly drawn) | 12.3
O=C(OCC(=O)N1CCc2ccccc21)c1ccc([N+](=O)[O-])cc1 | 14.6
CCOc1ccc(N2CC(C(=O)N3CC(C)OC(C)C3)CC2=O)cc1 (stereo not drawn) | 15.2
CC1Cc2ccccc2N1C(=O)CN1C(=O)COc2ccccc21 (stereo not drawn) | 14.6
CN[C@@H]1[C@H](O)[C@H](NC)[C@H]2O[C@@]3(O)C(=O)C[C@@H](C)O[C@H]3O[C@@H]2[C@H]1O.Cl.O | 11.3
CCCOc1ccccc1N/C(=N\S(=O)(=O)c1ccc(C)cc1)Nc1nc(C)cc(C)n1 | 10.8
O=C(c1ccc(F)cc1)N1CCCC(c2nc(-c3ccncc3)no2)C1 (stereo not drawn) | -35.5
O=C(COC(=O)c1cccc(S(=O)(=O)N2CCOCC2)c1)NCCc1ccccc1 | 0.565
Cn1nc(-c2ccc(Cl)cc2)c2cc(C(=O)NCCCN3CCOCC3)sc21 | -2.67
Cc1nnc(SCC(=O)N(C)c2ccccc2)n1Cc1ccccc1 | -1.15
CCOC(=O)C1CCN(Cc2ccc(-c3ccccc3)cc2)CC1 | 8.54
CCC1CN(C(=O)NCc2ccc(C)cc2)c2cc(Cl)ccc2O1 (stereo not drawn) | 11.5
CCOC(=O)c1c(-c2cccc([N+](=O)[O-])c2)cn2ccccc12 | 12.3
